The values that follow come from article PMC12136788.

Sequences and labels used below:
T1: UNK ZnF1-3 (human, UniProt Q9C0B0 31-174)
T1 sequence: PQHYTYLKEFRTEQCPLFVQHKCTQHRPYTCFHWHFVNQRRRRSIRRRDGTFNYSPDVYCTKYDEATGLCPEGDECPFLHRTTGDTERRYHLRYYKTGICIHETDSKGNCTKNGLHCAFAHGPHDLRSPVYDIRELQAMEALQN

B1: chr9:80412558:80412559:-_ENSG00000156052_ENST00000286548|hu_mus|motif|central (ssRNA)
RNA: GGGAGUUCUACAGUCCGACGAUCAGUGGGGACUCGAACUCUAAGCACGUCUUGUUGUGUAGGCAGAUAGGAAGGGUCGGCGGCACGGUCCAAGUCAUUCAGAUAGUAUUUGGUAGAGUCAGAUAACUGAUAUUCCCGUCGUCUCAACAGAGGAUUGAGCAUCA
B2: chr20:44444512:44444513:+_ENSG00000175063_ENST00000356455|hu_hu|FALSE|FALSE (ssRNA)
RNA: GGGAGUUCUACAGUCCGACGAUCCAGGUACUUCUUAAAAGCUGUGGGGUUUUUCCAGAGCUCGGCAGCAUGUGUGUUCAAGGGACUAUCAAUGUUGGGUUCUCCUAGAAGGCUCUGGAUGGAGAGCAGAAUGGUCCUGACAUCCAACAGAGGAUUGAGCAUCA
B3: 14486526_14487897_2526_CDS_ENSG00000129083_ENST00000439561|human|control|control (ssRNA)
RNA: GGGAGUUCUACAGUCCGACGAUCAUGAGGAGCAAGAGUCAAAGGAGACGGCUUUUCCACAAGUUUCAGAUCCCCUAGUGUAGCUAGUUCUAAUGUGCAAUUCUGCAAAGUAUCACUGGUUUGGUUCACAACAAGUACAUCCAGCAACAGAGGAUUGAGCAUCA
B4: chr4:65274301:65274302:+_ENSMUSG00000051675_ENSMUST00000050850|mus_mus|motif|central (ssRNA)
RNA: GGGAGUUCUACAGUCCGACGAUCGUGCAGCAGCUUGGGUCGCAGCUGCUCUUCAGUGAAGGACUCCAUGCAGAUGGGACAUUCGGGCACUUCCCGGAGGGCAUCCAGGUUCAGGUGAGAAGCUGCUGCAGCCGCAGCCAUUGCCAACAGAGGAUUGAGCAUCA
B5: chr3:105756983:105756984:-_ENSMUSG00000000563_ENSMUST00000118209|mus_mus|FALSE|FALSE (ssRNA)
RNA: GGGAGUUCUACAGUCCGACGAUCAAUAAAUUCUCCAAAAGAGGCGCCAUAUUUCUUAAUCACAUAGACUAUCAACCCUACUACUGAUAUGGUAGAGAAGGUCUCUGGGGUAAUCACAUAUAUUUCUUUGGAUAGAAAAUACAACAACAGAGGAUUGAGCAUCA
B6: chr19:29096225:29096226:-_ENSMUSG00000024782_ENSMUST00000025696|mus_mus|FALSE|FALSE (ssRNA)
RNA: GGGAGUUCUACAGUCCGACGAUCCUCAGGCUGGUUGGAUCCCACUGCUGUAAGUAGAAGAGGAGGCUGCUUAGAUGGUACCAGAAGAAUUGCUUCCCUUUAAAUUAGGGUGGGAAGUGGUAGCACACAGUGAUCCCAGCACUUCAACAGAGGAUUGAGCAUCA
B7: chr8:74858975:74858976:-_ENSG00000154582_ENST00000284811|hu_mus|hu_hu_hu_mus_True|8_8 (ssRNA)
RNA: GGGAGUUCUACAGUCCGACGAUCGACCUUGUAGGUAAAAUACAUGCACACUUUUGAUAGCACAUGUGAGGGGAUCUCUCUAAAAUUGACCUCGUUGGUUUCAUUCUCAGCAAACUGACCUGGACCACUCAACAUGGCCUUUAUCAACAGAGGAUUGAGCAUCA
B8: 93402855_93408775_669_CDS_ENSG00000166004_ENST00000325212|human|control|control (ssRNA)
RNA: GGGAGUUCUACAGUCCGACGAUCAUUGGUUUUGACUGCAGAAAUUCUUUUUACUUCGAUGUUCUCAAAAAGAGUUGGAGGAGGAGGUGGCAGACUUGUAAUUUUGGCUGAUCUCUCUUUUUCCACAAGCAGUGCUUCCUUUCGCAACAGAGGAUUGAGCAUCA
B9: chr6:133138135:133138136:+_ENSG00000112306_ENST00000230050|hu_hu|motif|central (ssRNA)
RNA: GGGAGUUCUACAGUCCGACGAUCAACCACUUUACGGGGUUUCCCCUCUCUGUCAAUUUUACAAAGGCCUACCCAUUCUCCGGGUUUCUUGUUGUCAUCAACCUUAAUUAGGUUGAUUUGGUGUUCAGCACAAAGGGCCUCCACCAACAGAGGAUUGAGCAUCA
B10: chr8:95500983:95500984:-_ENSG00000164944_ENST00000437199|hu_hu|hu_hu_hu_mus_True|48_108 (ssRNA)
RNA: GGGAGUUCUACAGUCCGACGAUCAGAAGGAUUUUUACGAGUAAAGGACCGUACAUGACGGCCUCUACCACUGCCUCCACUAACAAAACUUUCCUCUGAGCCUCCACUGCCGCUAUUUGUACUAGCCCAGGACGGUCCCAGGCCCAACAGAGGAUUGAGCAUCA
B11: chr11:18503389:18503390:-_ENSG00000074319_ENST00000251968|hu_hu|hu_hu_hu_mus_True|18_18 (ssRNA)
RNA: GGGAGUUCUACAGUCCGACGAUCAUUUUCCAUUUUCUCCAGAGCAGAACUUAGUUCUUCAUCCUUCUUUUUCAAAAGUUCUAUGUUUUUAUCAACUUCAGCUACUUCUUGAUCUAAACGGGUAACCAUCUCUUCCAGUUUCUGCAACAGAGGAUUGAGCAUCA
B12: chr6:41757443:41757444:+_ENSG00000214736_ENST00000398881|hu_mus|hu_hu_hu_mus_False|1_8 (ssRNA)
RNA: GGGAGUUCUACAGUCCGACGAUCGAACCGUGCAGAGGCAACAUCUCAGCCGACACUGGGGGAUGGGGGGGCAGUGGGGGGGGGUUCAGGCAAGGAGAGGGAGUCAACUUCAGCUGCCACUCAGGUAGCUGCCAUCAGGGCACACAACAGAGGAUUGAGCAUCA
B13: chr7:75932113:75932114:+_ENSG00000106211_ENST00000248553|hu_hu|hu_hu_hu_mus_False|38_58 (ssRNA)
RNA: GGGAGUUCUACAGUCCGACGAUCCUGCGACCACUCAUCGGGCAACCGGGGCACCCCGAAAGCUUGAUCGAAGAGGCGGCUAUGCGGAGGGUACCAGCGGAAGGGGUGUUCCCAGCUCGGGCUCCGCAGCAGCGAGAAGGGCACCAACAGAGGAUUGAGCAUCA
B14: chr11:43702452:43702453:+_ENSG00000149084_ENST00000278353|hu_hu|FALSE|FALSE (ssRNA)
RNA: GGGAGUUCUACAGUCCGACGAUCCCCCGCCUCAUUCCCCACUCCCCAGACCCGGAGGGCCGUGAAGAGCGAGUACGAAAUACGCAGGGCUAGGUAGGCCACGGUGCCCGCGCCGACCCAGUACAGGAAGCCGGCGGCGGGGAGCAACAGAGGAUUGAGCAUCA
B15: chr10:33214929:33214930:-_ENSG00000150093_ENST00000302278|hu_hu|hu_hu_hu_mus_True|28_98 (ssRNA)
RNA: GGGAGUUCUACAGUCCGACGAUCAACAAGUUCAUUGAAUACUUCUCCUCUGUCAGUAAGACUAAGCACAUUUUUGUAGCUAAAUGGGCUGGUGCAGUUUUGUUCACUUGUGCAAGGAUUUCUUAGCUUUGCUGGGGUUGUGCUCAACAGAGGAUUGAGCAUCA
B16: chr7:116084223:116084224:+_ENSMUSG00000031029_ENSMUST00000033342|mus_hu|motif|central (ssRNA)
RNA: GGGAGUUCUACAGUCCGACGAUCUGAUGCCCCUCCUACUUGCUGCAAGUCACUUGAGAGUCCAAUCACUCUGUUGGGGCGGAAGCAGGUCUUCAUGAUCAGGUCAACUCCGAUGCGUUCAGUGUCGUAGUACGCGUAUUUCACCAACAGAGGAUUGAGCAUCA
B17: chr3:10015032:10015033:+_ENSMUSG00000027533_ENSMUST00000029046|mus_mus|mus_mus_mus_hu_True|18_88 (ssRNA)
RNA: GGGAGUUCUACAGUCCGACGAUCGUUUUUACCAUCACAAGUGAUGAUACAGUCUGGCUUGGCCAUUGCGCCCAUUUUUCGCAAAGCUAUUCCCACUCCUAGCUCCUUCAUGUAUUCCUCAAAGCCGUUGCUGUCCACCAGGCGCAACAGAGGAUUGAGCAUCA
B18: chr5:128440902:128440903:+_ENSG00000066583_ENST00000173527|hu_mus|hu_hu_hu_mus_True|1_1 (ssRNA)
RNA: GGGAGUUCUACAGUCCGACGAUCUUGAACGGUGCUGCCAAGUCCUUUGGGGUAUUGUUCCGUUAUGAUAACUGGAAUCCCUAAGAUCCGAGCUCCUUGCAACAGUCUCUGUCCCACACUAAUGAUGUCCCCAAAGUACUUGAUCAACAGAGGAUUGAGCAUCA
B19: chr2:135883765:135883766:+_ENSG00000115839_ENST00000442034|hu_hu|motif|central (ssRNA)
RNA: GGGAGUUCUACAGUCCGACGAUCAGAAUAAACAUCAUUAUCCACAAUGAUCCCUUCGGUCAGAUGAGGCCAUGUAGUAGCGGAAUGGAGUUCACUAAUAGGAUCUUCGCAGGCACCAAAUGGUAACUUGCCAAACUCCAAGCCCAACAGAGGAUUGAGCAUCA
B20: chr7:149068622:149068623:-_ENSMUSG00000025139_ENSMUST00000001950|mus_hu|mus_mus_mus_hu_False|8_108 (ssRNA)
RNA: GGGAGUUCUACAGUCCGACGAUCGUGCAGGUACUGAGUGUGGCUUGUGGUCUGUCCUGGGUUAGAGUUGUUAAUAUCACGGAACAUACCAUCUAGAACGUUCCAGUCCCGCCUGACACCUUCAUUCGCAAGAGGGCAGAAAUCCAACAGAGGAUUGAGCAUCA
B21: chr2:37459336:37459337:+_ENSG00000003509_ENST00000002125|hu_hu|FALSE|FALSE (ssRNA)
RNA: GGGAGUUCUACAGUCCGACGAUCCAACACCUCCUUCAUGUACUCGGCCACAGUGAUGGGACCAGUAGACUUUAUUUUGUACAUAAGAUGCCGCAGCAUCGGCGUCACCGGGUUUUCUGCAGGCUCAUUCCCGGAGCUGAAGUACAACAGAGGAUUGAGCAUCA
B22: chrX:71549762:71549763:+_ENSMUSG00000019087_ENSMUST00000019231|mus_mus|mus_mus_mus_hu_False|38_58 (ssRNA)
RNA: GGGAGUUCUACAGUCCGACGAUCAAACCCGUGUACUUCUUAUUGUUAGCACAACAUCACCAGAAAACGAUAACGACAGCUAAGCUGGACAGACAGUCAAGUAGUCUUUCCACACUCCCAAACUCAGGGAGCCCUAUAACCUUACAACAGAGGAUUGAGCAUCA

The other results are listed elsewhere or left out.

For the experiment, the target named is T1, UNK ZnF1-3. Description: nsRBNS (natural sequence RNA bind-n-seq); RBNS binding buffer (assumed for nsRBNS): 25 mM Tris pH 7.5, 150 mM KCl, 3 mM MgCl2, 0.01% Triton X-100, 500 ug/ml BSA, 20 U/ml SUPERase-In, 4 C; UNK is unkempt and MSI1 is Musashi-1; names of the RNAs are library labels; protein concentration not given here; high values mean tight binding.
In the case of B1, the binding signal came to 0.768 enrichment R.
As for B2, the figure is 0.828 enrichment R; as for B3, 1.44 enrichment R; as for B4, 0.533 enrichment R.
As for B5, the figure is 0.954 enrichment R; as for B6, 1.51 enrichment R.
The value for B7 was 0.619 enrichment R; that for B8 was 0.732 enrichment R; that for B9 was 0.505 enrichment R.
For the molecule B10, the binding signal came to 0.989 enrichment R.
The value for B11 was 0.506 enrichment R; that for B12 was 1.67 enrichment R; that for B13 was 1.29 enrichment R.
The value for B14 was 0.579 enrichment R.
B15 showed a binding signal of 0.661 enrichment R.
B16 displayed a binding signal of 0.706 enrichment R.
As for B17, the figure is 0.753 enrichment R.
As to B18, the binding signal was 0.566 enrichment R.
As for B19, the figure is 1.08 enrichment R; as for B20, 0.932 enrichment R.
The value for B21 was 0.777 enrichment R; that for B22 was 0.927 enrichment R.
